# Laboratory results taken from a collection of fitness landscapes (doi:10.1126/science.1257360).
# The other results are listed elsewhere or left out.
# B1: PhoQ; a variant is named by its letters at X, in order, P23837 (parent)
# chain: MKKLLRLFFPLSLRVRFLLATAAVVLVLSLAYGMVALIGYSVSFDKTTFRLLRGESNLFYTLAKWENNKLHVELPENIDKQSPTMTLIYDENGQLLWAQRDVPWLMKMIQPDWLKSNGFHEIEADVNDTSLLLSGDHSIQQQLQEVREDDDDAEMTHSVAVNVYPATSRMPKLTIVVVDTIPVELKSSYMVWSWFIYVLSANLLLVIPLLWVAAWWSLRPIEALAKEVRELEEHNRELLNPATTRELTSLVRNLNRLLKSERERYDKYRTTLTDLTHSLKTPLXXLQXXLRSLRSEKMSVSDAEPVMLEQISRISQQIGYYLHRASMRGGTLLSRELHPVAPLLDNLTSALNKVYQRKGVNISLDISPEISFVGEQNDFVEVMGNVLDNACKYCLEFVEISARQTDEHLYIVVEDDGPGIPLSKREVIFDRGQRVDTLRPGQGVGLAVAREITEQYEGKIVAGESMLGGARMEVIFGRQHSAPKDE
# Variants of: B1
# Assay: enrichment ratio after two sorts for PhoP signalling (ratio (wild type AVST 3.29)); higher = more functional
# Conditions: with PhoP (E. coli)
row,Variant,enrichment ratio
1,NDGP,≤ 0.25
2,DPCS,≤ 0.25
3,YGKG,≤ 0.25
4,MVKR,≤ 0.25
5,ANMS,11.6
6,KQPR,≤ 0.25
7,TFVE,≤ 0.25
8,IRWN,≤ 0.25
9,QGKH,≤ 0.25
10,FKHH,≤ 0.25
11,NYGS,≤ 0.25
12,HHIY,≤ 0.25
13,LDKQ,≤ 0.25
14,PKAT,≤ 0.25
15,WVQW,≤ 0.25
16,WKSG,≤ 0.25
17,LDTY,≤ 0.25
18,KTIP,≤ 0.25
19,YHVL,≤ 0.25
20,DMVR,≤ 0.25
21,NPAY,≤ 0.25
22,PLDY,≤ 0.25
23,PMRR,≤ 0.25
24,VHRT,≤ 0.25
25,VQAQ,≤ 0.25

row,Variant,enrichment ratio
1,MEHG,11.9
2,FCIN,≤ 0.25
3,TAHS,5.23
4,LMFK,≤ 0.25
5,PIHH,≤ 0.25
6,LDKV,≤ 0.25
7,FGMQ,21.1
8,FGLQ,9.95
9,VWVW,≤ 0.25
10,FVGN,≤ 0.25
11,NYSN,≤ 0.25
12,KHFF,≤ 0.25
13,GEAF,≤ 0.25
14,LEWL,≤ 0.25
15,SRWD,≤ 0.25
16,QADL,10.3
17,DDFH,≤ 0.25
18,AKYV,≤ 0.25
19,LGAY,≤ 0.25
20,TWLQ,≤ 0.25
21,MDAE,≤ 0.25
22,VMNH,≤ 0.25
23,ITRF,≤ 0.25
24,RRAF,≤ 0.25
25,FYWG,≤ 0.25

row,Variant,enrichment ratio
1,FKKL,≤ 0.25
2,MMYD,5.08
3,LDCW,≤ 0.25
4,WQMP,≤ 0.25
5,HDFS,≤ 0.25
6,FWQN,≤ 0.25
7,SLFG,≤ 0.25
8,PKVI,≤ 0.25
9,GGMH,4.91
10,IPYD,≤ 0.25
11,ADQK,≤ 0.25
12,WHYV,≤ 0.25
13,RVLQ,≤ 0.25
14,MSFL,13.3
15,IPPS,≤ 0.25
16,HICI,≤ 0.25
17,DIDQ,≤ 0.25
18,LSQE,≤ 0.25
19,PSWK,≤ 0.25
20,NQIG,≤ 0.25
21,ARGF,≤ 0.25
22,AGCF,5.18
23,SERV,≤ 0.25
24,VLKP,≤ 0.25
25,LSVG,≤ 0.25

row,Variant,enrichment ratio
1,YIRM,≤ 0.25
2,YKKA,≤ 0.25
3,HAYD,≤ 0.25
4,RIVA,≤ 0.25
5,LYTR,≤ 0.25
6,QRHG,≤ 0.25
7,WVPK,≤ 0.25
8,NSFY,≤ 0.25
9,YSMG,4.24
10,NKSP,≤ 0.25
11,GWCM,≤ 0.25
12,PWSI,≤ 0.25
13,VREK,≤ 0.25
14,AACG,9.08
15,IKGF,≤ 0.25
16,GVVW,≤ 0.25
17,TMIC,≤ 0.25
18,SMRP,≤ 0.25
19,GLGS,≤ 0.25
20,IYRD,≤ 0.25
21,DCWC,≤ 0.25
22,AGHY,≤ 0.25
23,FAVL,1.43
24,APCE,≤ 0.25
25,APIG,≤ 0.25

row,Variant,enrichment ratio
1,WDQC,≤ 0.25
2,SGRM,≤ 0.25
3,PQKV,≤ 0.25
4,DDMN,≤ 0.25
5,RFCN,≤ 0.25
6,QSVK,≤ 0.25
7,ILTH,≤ 0.25
8,GNRC,≤ 0.25
9,VWNW,≤ 0.25
10,YYDN,≤ 0.25
11,DFNC,≤ 0.25
12,SNYL,≤ 0.25
13,FTSG,≤ 0.25
14,PAKP,≤ 0.25
15,GTPH,≤ 0.25
16,QTPE,≤ 0.25
17,VTHY,≤ 0.25
18,ATSA,3.61
19,SACC,5.72
20,WPLD,0.253
21,TYWI,≤ 0.25
22,SIPF,≤ 0.25
23,HQQA,≤ 0.25
24,LGAK,≤ 0.25
25,PQWY,≤ 0.25

row,Variant,enrichment ratio
1,HPVP,≤ 0.25
2,VKLI,0.328
3,FYSF,≤ 0.25
4,YDLM,≤ 0.25
5,MANH,≤ 0.25
6,MLMN,≤ 0.25
7,VTAQ,≤ 0.25
8,KCWN,≤ 0.25
9,MEKW,≤ 0.25
10,HWTI,≤ 0.25
11,AFTV,≤ 0.25
12,PLWV,≤ 0.25
13,TVMY,≤ 0.25
14,MQEY,≤ 0.25
15,EIPL,≤ 0.25
16,MDIE,≤ 0.25
17,TWSQ,≤ 0.25
18,QLPE,≤ 0.25
19,MMRC,≤ 0.25
20,KFAR,≤ 0.25
21,VMNY,≤ 0.25
22,NWMG,≤ 0.25
23,ILQH,≤ 0.25
24,PTIN,≤ 0.25
25,WHLE,≤ 0.25

row,Variant,enrichment ratio
1,NWTQ,≤ 0.25
2,PRVV,≤ 0.25
3,GHMR,≤ 0.25
4,FMQR,≤ 0.25
5,FAKT,≤ 0.25
6,RAQS,≤ 0.25
7,TKKH,2.99
8,PFGR,≤ 0.25
9,VWNQ,≤ 0.25
10,DKSI,≤ 0.25
11,VEEM,≤ 0.25
12,PYQN,≤ 0.25
13,FTHA,≤ 0.25
14,NHPC,≤ 0.25
15,AVEK,≤ 0.25
16,WCMR,≤ 0.25
17,KHDS,≤ 0.25
18,CCLL,0.38
19,YFKS,≤ 0.25
20,FWPC,≤ 0.25
21,ASTL,20.2
22,MTHF,1.74
23,GYTS,≤ 0.25
24,RVGT,≤ 0.25
25,SGML,17.4

row,Variant,enrichment ratio
1,VDTH,≤ 0.25
2,IPYN,≤ 0.25
3,FQKN,≤ 0.25
4,CSLP,≤ 0.25
5,NKVR,≤ 0.25
6,VEVW,≤ 0.25
7,FWGV,≤ 0.25
8,DTMI,≤ 0.25
9,QAPN,≤ 0.25
10,YEPH,≤ 0.25
11,HVLG,≤ 0.25
12,LPIN,≤ 0.25
13,GYTL,≤ 0.25
14,GRDC,≤ 0.25
15,SYYM,≤ 0.25
16,NSHE,≤ 0.25
17,TPLQ,≤ 0.25
18,FVLE,≤ 0.25
19,ECKR,≤ 0.25
20,KNWV,≤ 0.25
